This is an account of results in PubChem BioAssay AID602332 (National Center for Advancing Translational Sciences (NCATS), 2012).

Each structure is given as a SMILES string. “And” between values parts separate entries of the source, which are not always exact repeats. Equal values may be shown once. About 75 (0.02%) of roughly 420,000 compounds were called active. Calls follow the shape of the dose curve; as a rule, active = well fitted activation curve with a large enough effect; inconclusive = small, poorly fitted or top-dose-only effect; inactive = no such curve, though single readings can be large or run the other way. The list shows a part of the results, in another mix than the full data.
Potency is read from the fitted curve at half-maximal effect.

This experiment in a line: qHTS for Inducers of the Endoplasmic Reticulum Stress Response (ERSR) in Human Glioma: qHTS. Also: nearly all actives have a fitted effect of over 35% in size. As to activation: % of control where 0% means no effect. The following applies: U87-MG GRP78 promoter luciferase reporter, 16 h; activation: stronger effect = higher value. An outline of the steps: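 Stably transfected U87-MG human glioma cells carrying a GRP78-based luminescent sensor were seeded at 1000 cells/well, pin-dosed with compounds and incubated 16 h. Luciferase reagent was then added, and end-point luminescence was read after 10 min at room temperature.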
On the technique in general: Quantitative high-throughput screening tests each substance at several concentrations.
For `CCOC(=O)CNC(=O)CSc1ncnc2c1cnn2-c1ccccc1`, the activation is inactive: -18.1%.
For the molecule `CN1CCN2c3ccccc3Cc3ccccc3[C@@H]2C1`, the activation was inactive: 1.04% and inactive: -7.15%.
The same measure, in the same setting: to `N#CC(=Cc1ccc(O)c(O)c1)C(=O)NCc1ccccc1` belongs inactive: 8.24%; to `CN(C)CCC(=O)c1ccc2c(c1)OCO2`, inactive: -15.4%.
Consider `O=C(Nc1ccc(F)cc1)c1nn(-c2ccccc2)c(=O)cc1Cl`, for which the activation is inactive: -16.6%.
Take `COc1ccc(C(=O)Nc2nc3ccccc3[nH]2)cc1`: the activation was inactive: -14%.
Regarding `Cc1cc(C)c2c(N)c(C(=O)Nc3nccs3)sc2n1`, the activation was inactive: -14%.
Take `CCC(=O)Nc1ccc(C(=O)Cn2ncc(Cl)c(Cl)c2=O)cc1`: the activation is inactive: -15.8%.
Turning to `O=C(O)c1cccc(C(=O)Nc2cccc(NC(=O)C3CCCO3)c2)c1` (configuration not stated), the activation is inactive: -13.8%.
On the same count and under the same terms, to `CCCCC/C=C\CC(O)/C=C/c1cccc(CC(O)CCCCO)n1` (configuration not stated) belongs inactive: -1.91%; to `CCOc1ccc(-c2cc(CCCC(=O)Nc3cc(OC)ccc3OC)no2)cc1`, inactive: -13.1%; to `CCOC(=O)CNC(=O)CSc1nnc(-c2cccc(C)c2)n1-c1ccc(OC)cc1`, inactive: -16.7%.
With `CC(C)(C)OC(=O)C[C@@H]1C/C=C\C[C@@H](CC(=O)N[C@H](CO)Cc2ccccc2)C(=O)NC[C@H](c2ccccc2)OC1=O`, the activation was inactive: -2.47%.
With `C=C1C(=O)[C@]23[C@H](O)[C@H]1CC[C@H]2[C@@]12COC3(O)[C@H](O)[C@@H]1C(C)(C)CC[C@@H]2O`, the activation was inactive: -12.1%.
Same read-out and setting: under `Oc1cc2c(c(Cl)c1O)CCNC[C@H]2c1ccccc1` stands inactive: -0.537%; under `CCCCN1CCC[C@H]1CNC(=O)c1cc(C#N)c2ccccc2c1OC`, inactive: -8.18%; under `CC(C)(C)C(=O)Nc1ccc(NC(=O)c2ccco2)nc1`, inactive: -18.9%.
As to `COC(=O)C(C)Oc1cc(OC(C)C(=O)OC)c2c(C)c(Cl)c(=O)oc2c1` (configuration not stated), the Potency was active: 39.8 µM.
On to `COc1ccc(C(=O)Nn2c(SCC(=O)NCc3ccco3)nc3ccccc3c2=O)cc1`, for which the activation is inactive: -16.7%.
As for `CCn1nnnc1SCC(=O)c1ccc(C)cc1C`, the activation was inactive: -10.4%.
With `CCCCS(=O)(=O)/C=C\C=C/S(=O)(=O)CCCC`, the activation was inactive: -15.2%.
Consider `CCOC(=O)C1CCN(C(=O)Cn2ncc3c4ccccc4n(Cc4ccc(F)cc4)c3c2=O)CC1`, for which the Potency is active: 39.8 µM.
With `O=C(CCCN1C(=O)/C(=C/c2ccccc2Cl)SC1=S)NNC(=O)c1cccnc1`, the activation was inactive: -14.8%.
For the molecule `CC(C)c1nnc(NC(=O)c2nc(S(=O)(=O)Cc3ccc(F)cc3)ncc2Cl)s1`, the activation is inactive: -19.3%.
As to `O=c1ccc2ccc(O)c(O)c2o1`, the Potency was active: 41.4 µM.
For the molecule `O=C(CCc1ccc(O)c(O)c1)N/N=C/c1ccc2c(c1)OCO2`, the Potency is active: 22.4 µM.
In the case of `COc1ccc(C(=O)Nc2nnc(SCC(=O)NC3CC3)s2)cc1`, the activation was inactive: -14.4%.
With `O=C(/C=C/c1ccc(O)c(O)c1)O[C@@H]1C[C@@](O)(C(=O)O)C[C@H](O)[C@@H]1O`, the activation was inactive: -1.19%.
Take `CC(=O)N[C@@H](CC(=O)O)C(=O)O`: the activation was inactive: -1.99% and inactive: 2.2%.
Same read-out and setting: to `C=C1C(=O)O[C@@H]2[C@H]3O[C@]3(C)CC/C=C(\C)CC[C@@H]12` belongs inactive: -11.9% and inactive: -7.86%; to `Cc1ccccc1N=CC1=C(O)c2ccccc2C1=O`, inactive: -15.6%; to `COC(=O)CSc1nc(-c2ccc(F)cc2)cc(C(F)(F)F)n1`, inactive: -2.62%.
As for `CC(=O)OCC1OC(C#Cc2ccccc2)C=CC1OC(C)=O` (configuration not stated), the activation was inactive: 2.43%.
Regarding `O=C(CCCN1C(=O)/C(=C/c2ccccc2Cl)SC1=S)NNC(=O)c1ccc(Cl)cc1Cl`, the activation was inactive: -18.2%.
As for `CC[C@H](C(=O)[C@H](C)[C@H](O)[C@H](C)CCc1ccc(C)c(O)c1C(=O)O)[C@H]1O[C@](CC)([C@@H]2CC[C@@](O)(CC)[C@H](C)O2)C[C@H]1C`, the activation is inactive: 3.75%.
For `O=c1c2ccccc2nc(/C=C/c2cc(Br)ccc2O)n1CCCO`, the activation was inactive: -14.4%.
With `CC(C)(C)C(=O)NC(=S)NNC(=O)C(c1ccccc1)c1ccccc1`, the Potency was active: 22.4 µM.
As to `C[C@@H]1CN([C@@H](C)CO)S(=O)(=O)c2ccc(Br)cc2O[C@H]1CN(C)C(=O)c1ccccc1`, the activation was inactive: -2.82%.
Same read-out and setting: under `CC(C)(C)OC(=O)C[C@@H]1C/C=C\C[C@@H](CC(=O)N[C@@H](CO)Cc2ccccc2)C(=O)NC[C@@H](c2ccccc2)OC1=O` stands inactive: -2.63%.
`CCOc1ccc(OCc2ccc(C(=O)OCc3ccccn3)o2)cc1`: the activation is inactive: -14.3%.
Turning to `CCNC(=O)NC(=O)COC(=O)c1ccccc1SCC(=O)NC(=O)NCC`, the activation was inactive: -11.6%.
In the case of `CCC(C)(C)c1ccc(Oc2ccc(NC(=O)COC(=O)C3=COCCO3)cc2)cc1`, the activation was inactive: -15.8%.
As for `COC(=O)NC(=C(Cl)Cl)S(=O)(=O)c1ccccc1`, the activation is inactive: -15.4%.
`CCc1nn2cc(-c3ccccc3)nc2s1`: the activation is inactive: -14.9%.
Turning to `Cc1cc(NCCCCCCCNc2cc(C)nc3cc([N+](=O)[O-])ccc23)c2ccc([N+](=O)[O-])cc2n1`, the activation was inactive: -14.2%.
With `CCCCCCCCCCCCCCCCCC(=O)OC(CC(=O)O)C[N+](C)(C)C` (configuration not stated), the activation was inactive: -13.5%.
`O=C(N/C=N/OCc1ccc(Cl)cc1Cl)NOCc1ncc(C(F)(F)F)cc1Cl`: the activation is inactive: -18.6%.
In the case of `Cc1ccc(C(C)C)c2c1C(c1ccc3c(c1)OCO3)CC(=O)O2` (configuration not stated), the activation is inactive: -0.85%.
Consider `COc1ccc(Br)cc1C(C[N+](=O)[O-])c1c(N)n(C)c(=O)n(C)c1=O` (configuration not stated), for which the activation is inactive: -15.9%.
Consider `O=C1C=CC2(C=C1)O[C@H](Cc1ccccc1)[C@@H](Cc1ccccc1)O2`, for which the activation is inactive: -14.1%.
Take `CC(=O)N(C)c1ccc(N=Nc2ccc3ncccc3c2)cc1`: the activation is inactive: -12.1%.
For the molecule `COc1ccc(-c2cc(=O)c3ccc(O)cc3o2)cc1`, the activation was inactive: -5.89% and inactive: -4.47%.
On the same count and under the same terms, to `C[C@@H](NC(=O)/C(C#N)=C/c1ccc(O)c(O)c1)c1ccccc1` belongs inactive: 2.12% [middle of 4 runs].
As for `CCCn1cnc2cc(NC(=O)c3ccco3)ccc21`, the activation is inactive: -10.8%.
Take `C=CC[C@@H](CC(=O)OC(C)(C)C)C(=O)OC[C@H]1CCCN1C(=O)[C@@H](CC=C)CC(=O)NCCO`: the activation was inactive: -3.67%.
As to `O=[N+]([O-])c1cc(-c2ccc(/C=N/c3nc4ccccn4c3-c3ccco3)o2)ccc1Cl`, the activation was inactive: -16.7%.
Still for that read-out and setting: to `O=C(Nc1ccc(Cl)cc1)Nc1ccccc1C(=O)O` belongs inactive: -16.1%; to `O=C(COc1ccc(Cl)cc1Cl)Nc1ccccn1`, inactive: -14.4%; to `CC(C)(C)c1ccc([C@@H](O)CCCN2CCC(C(O)(c3ccccc3)c3ccccc3)CC2)cc1`, inactive: -4.35%.
As to `CC(=O)c1c(C)[nH]c(C(=O)OCCOc2ccccc2)c1C`, the activation is inactive: -14.6%.
Turning to `Cc1ccc(NC(=O)CCOc2ccccc2)cc1`, the activation is inactive: -0.619%.
On the same count and under the same terms, under `Cc1ccc(C(=O)N/N=C/c2ccc([N+](=O)[O-])s2)cc1` stands inactive: -18.2%; under `CC(=O)NC(CC(=O)O)C(=O)O` (configuration not stated), inactive: 1.67%; under `Cn1cnc([N+](=O)[O-])c1S(=O)(=O)c1ccc(Cl)cc1`, inactive: -16.3%.
As for `Cc1ccc(CS(=O)(=O)c2ncc(Cl)c(C(=O)Nc3nnc(C(C)C)s3)n2)cc1`, the activation is inactive: -10.7% and inactive: -19.1%.
Take `Cn1cc(C=C2C(=O)Nc3cccnc32)c2ccccc21`: the activation was inactive: -1.05%.
On the same count and under the same terms, under `O=C(O)CCCCC1CCSS1` (configuration not stated) stands inactive: -2.14% and inactive: -3.87% and inactive: -1.96%; under `CCCCC/C=C\C[C@H](O)/C=C/c1cccc(C[C@H](O)CCCCO)n1`, inactive: 4.18%.
As for `O=C(O)c1cc(O)ccc1N=Nc1ccccc1`, the Potency is active: 28.2 µM.
Regarding `O=C(NCc1ccccc1Cl)C1CCCN(S(=O)(=O)c2cccc3nsnc23)C1` (configuration not stated), the activation was inactive: -3.26%.
Turning to `O=S(=O)(c1ccc(Cl)cc1)c1snnc1-c1ccccc1`, the activation was inactive: -17.1%.
On to `O=c1cc(-c2ccccc2Cl)oc2c(NS(=O)(=O)c3cc(Cl)cc(Cl)c3O)ccc(O)c12`, for which the activation was inactive: -2.36%.
Turning to `CC[C@@H](C)[C@H]1O[C@]2(CC[C@@H]1C)C[C@@H]1C[C@H](C/C=C(/C)[C@H](O[C@@H]3C[C@H](OC)[C@H](O[C@@H]4C[C@H](OC)[C@@H](O)[C@H](C)O4)[C@H](C)O3)[C@@H](C)/C=C\C=C3CO[C@@H]4[C@H](O)C(C)=C[C@@H](C(=O)O1)[C@]34O)O2` (tested in a mixture with another compound), the activation was inactive: -6.52%.
`COC(=O)c1[nH]c2ccc(Br)cc2c1NC(=O)CN1CCN(C2CCCCC2)CC1`: the activation is inactive: -17.5%.
Same read-out and setting: under `COc1cccc(N(C(=O)c2ccco2)C(C(=O)NC2CCCC2)c2ccc(N(C)C)cc2)c1` (configuration not stated) stands inactive: -17.8%; under `CCN(CC)CCNC(=O)COc1ccc(OC)cc1`, inactive: -2.25% and inactive: -4.13% and inactive: -3.87%.
For `COCCCn1c(-c2ccccc2Cl)n[nH]c1=S`, the activation was inactive: -18.6%.
Same read-out and setting: under `CCOc1ccc(N2C(=O)CC(N)C2=O)cc1` (configuration not stated) stands inactive: -16.7%; under `CCN(CC)c1ccc2cc(NC(=O)CCC(=O)O)c(=O)oc2c1`, inactive: -13.6%.
Take `COC(=O)c1ccccc1CCC(C)=O`: the activation was inactive: -18.2%.
Take `CC(=O)N(Cc1ccc(F)cc1)C1=C(NCCc2ccccc2)C(=O)c2ccccc2C1=O`: the activation is inactive: -19.3%.
Regarding `COc1cc(/C=C/C(=O)CC(=O)/C=C/c2ccc(O)c(OC)c2)ccc1O`, the activation was inactive: -10% [middle of 5 runs].
